#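 Values below derive from 48-hour exposures of cells grown in 96-well plates, with endpoints linearly interpolated between the two concentrations bracketing the appropriate inhibition level. The concentration for 50% growth inhibition is given as GI50.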 The source made the active and inactive calls. Rule as the data show it: active = GI50 up to about 1.1 µM and inactive = higher.
# Test system: NCI-H322M
# Experiment: NCI-60 cell line screen, 48 h
row,SMILES,GI50
1,O=C(C(=O)c1cc(-c2ccccc2)nc2ccc3ccccc3c12)c1ccccc1,inactive: 54.2 µM
2,CCOC(=S)SCC(=O)O,inactive: > 100 µM
3,N#CC1(Cc2ccccc2Cl)c2ccccc2C=CN1C(=O)c1ccccc1 (stereo unspecified),inactive: > 100 µM
4,c1ccc2c(c1)CCc1c-2n(CCN2CCCCC2)c2ccccc12,inactive: 15.2 µM
5,Nc1ncn(C/C=C/c2ccccc2)c2ncnc1-2,inactive: > 100 µM
6,CC(CC[C@@]1(O)OC2C[C@H]3[C@@H]4CC[C@H]5CC(OC6OC(CO)C(OC7OC(CO)C(O)C(OC8OCC(O)C(O)C8O)C7OC7OC(CO)C(O)C(O)C7O)C(O)C6O)[C@H](O)CC5(C)[C@H]4CCC3(C)C2[C@@H]1C)COC1OC(CO)C(O)C(O)C1O (stereo partly specified),inactive: 5.28 µM
7,O=C(O)c1cc(/N=C/c2ccccc2O)cc(C(=O)O)c1,inactive: > 100 µM
8,CCOC(=O)NC(OCCN(C)C)(C(F)(F)F)C(F)(F)F,inactive: > 100 µM
9,Cc1nc2c(C)c3c([nH]c4ccc(Cl)cc43)c(C)c2c(O)c1C,inactive: 25.3 µM
10,O=C(CSc1ncccn1)N/N=C/c1ccccc1OCc1ccccc1,inactive: 45.3 µM
11,CC1CC(C)C2=NOS3=C2C1=NO3 (stereo unspecified),inactive: > 100 µM
12,CCOC(=O)[C@@H]1C2C(=C[C@H]3[C@H]1C(=O)N1CCCC[C@H]31)CCCN2C(=O)OCc1ccccc1 (stereo partly specified),inactive: 53.6 µM
13,C=CCN1C(=O)C(=O)N(CC=C)C(=O)C1=O,inactive: > 100 µM
14,CC[N+]1(C)CCC(O)(c2ccc(C)cc2)C(C(=O)c2ccc(C)cc2)C1 (stereo unspecified),inactive: > 100 µM
15,COc1cc(O)c2c(=O)c(OC)c(-c3ccc4c(c3)OCO4)oc2c1,inactive: > 100 µM
16,O=[N+]([O-])c1ccc2[nH]c(=S)[nH]c(=S)c2c1,inactive: > 100 µM
17,O=P(O)(O)CN1CCNCCN(CP(=O)(O)O)CC1,inactive: > 40.5 µM
18,COc1ccc(C(=O)C(C(=O)CCC(=O)Nc2cccc(Cl)c2)c2ccc(OC)cc2)cc1 (stereo unspecified),inactive: > 100 µM
19,COC(=O)C1=C(O)C(C(=O)OC)[C@]2(O)[C@@H](C(=O)OC)[C@H]1C[C@@H](c1ccccc1)[C@@H]2C(=O)OC (stereo partly specified),inactive: 16.6 µM
20,Nc1ccccc1-n1c2c(c3ccccc3c1=O)C(=O)c1ccccc1-2,inactive: 35.3 µM
21,Cn1c(=O)nc2n(-c3ccc(Cl)cc3)c3ccc(Cl)cc3nc-2c1=O,inactive: 15.3 µM
22,CC1=CC(=O)N(c2c(C)cccc2Cl)C(C)N1 (stereo unspecified),inactive: > 100 µM

row,SMILES,GI50
1,C/C(CC(=O)Nc1cccc([N+](=O)[O-])c1)=N/NC(N)=S,inactive: > 100 µM
2,C/C=C(\CCOS(=O)(=O)c1ccc(C)cc1)[Si](C)(C)C,inactive: > 100 µM
3,Cc1ccc(NC(=O)CC/C(CC(=O)C(C)(C)C)=N/NC(=O)C(N)=O)cc1C,inactive: > 100 µM
4,COc1cc(N(C)C)c(OC)cc1/C=C\c1ccnc2ccccc12,active: 0.889 µM
5,O=C1OS2(OC(=O)c3cccc4cccc2c34)c2ccccc21 (stereo unspecified),inactive: > 100 µM
6,CN1CCN(C(=O)CCNC(=O)Cc2ccc(C(=O)c3ccccc3)cc2)CC1,inactive: > 100 µM
7,CCOC(=O)C(C(=O)OCC)c1cc(-c2cc3ccccc3o2)oc(=O)c1C#N,inactive: 28.1 µM
8,O=C(c1ccccc1)C(c1ccccc1)C1(O)C(=O)Nc2c(Cl)cc(Cl)cc21 (stereo unspecified),inactive: 18.9 µM
9,Cn1c(=O)nc2n(-c3ccc(Cl)cc3)c3cc(Cl)ccc3nc-2c1=O,inactive: 10.4 µM
10,CC(C)=C/C=C1/CS(=O)(=O)C=C1C,inactive: > 100 µM
11,O=C1c2c(O)cccc2C(C(=O)CCCCC(=O)C2c3cccc(O)c3C(=O)c3c(O)cccc32)c2cccc(O)c21,active: 0.885 µM
12,OCSc1nn(CO)c(=S)s1,inactive: 41.7 µM
13,Cc1nc2c3c(ncn2n1)Oc1c(c(-c2ccccc2)nn1-c1ccccc1)C3c1ccc(Cl)cc1 (stereo unspecified),inactive: > 100 µM
14,C#CCCCCC#Cc1ccccc1C(=O)OC,inactive: > 100 µM
15,COC(=O)CCC(=O)CC(=O)C(=O)Nc1ccc(F)cc1,inactive: > 100 µM
16,CC(C)=CCCC(C)CCOS(=O)C(F)(F)F (stereo unspecified),inactive: 26.8 µM
17,N#CC1(C#N)C=CC(=C2OCC3CCCN23)C=C1 (stereo unspecified),inactive: > 100 µM
18,COC(=O)C(=O)C(C(C)=O)C(=O)C(=O)Nc1ccc(C)cc1C (stereo unspecified),inactive: > 100 µM
19,CC(=O)NC1=C(NCCN(C)C)C(=O)c2ccccc2C1=O,inactive: 17.7 µM
20,COc1ccc(C(=O)OC2C=COC(C)C2OC(=O)c2ccc(OC)cc2)cc1 (stereo unspecified),inactive: 66.8 µM
21,CCN1CC2(COC)C(O)CC(OC)C34C5CC6(O)C(OC)C=C(C5C6OC(=O)c5ccc(OC)c(OC)c5)C(C(OC)C23)C14 (stereo unspecified),inactive: > 7.5 µM
22,O=C1Nc2cccc3cc(NCC(O)CCl)cc1c23 (stereo unspecified),inactive: 83.4 µM

row,SMILES,GI50
1,CCOC(=O)N1C/C(=C\c2ccc(N(C)C)cc2)C(=O)/C(=C/c2ccc(N(C)C)cc2)C1,inactive: > 100 µM
2,CN(C)CC1CCCCCC(Br)C1=O (stereo unspecified),inactive: 53.6 µM
3,Cc1ccc(Cc2n[nH]c(=O)n2-c2ccccc2)cc1,inactive: > 100 µM
4,CCC#CCCCCCCCCC(F)C(=O)O (stereo unspecified),inactive: > 100 µM
5,CSc1ccc(C2OC(=O)c3ccccc32)c2ccccc12 (stereo unspecified),inactive: > 100 µM
6,CC(=O)OCC1OC(N2C(=O)CC(N)=Nc3ccccc32)C(OC(C)=O)C(OC(C)=O)C1OC(C)=O (stereo unspecified),inactive: 75.7 µM
7,O=C1NC(=O)/C(=C/c2ccc(S(=O)(=O)N/N=C/c3ccc(Cl)cc3)cc2)N1,inactive: > 100 µM
8,O=[N+]([O-])c1ccc(-c2noc(-c3ccccc3)c2C2=NCCN2)cc1,inactive: > 100 µM
9,COC1(OC)CC(CO)(CNc2cc(Cl)nc(N)n2)C1,inactive: > 100 µM
10,CC(C)/C(Cl)=N/OC(=O)Nc1ccc(Br)cc1,inactive: 14.8 µM
11,CC1=NN(c2cccc(Cl)c2)C2(C1=C/C=C/c1ccccc1)C(Cl)C(=O)N2c1nc2ccccc2s1 (stereo unspecified),inactive: 37.2 µM
12,Cc1ccc(O)c(Cc2nc3ccccc3nc2-c2cccc(Br)c2)c1,inactive: > 100 µM
13,CCOC(=O)/C(=C/c1ccccc1Br)P(=O)(OCC)OCC,inactive: 3.52 µM
14,Cc1nc2ccccc2c(=O)n1CC(=O)O,inactive: > 100 µM
15,C[C@]12CCC3[C@@H](CC[C@@H]4c5nonc5CC[C@]34C)C1CCC2=O (stereo partly specified),inactive: 32.1 µM
16,CC(C)(Oc1ccc(Cl)cc1)C(=O)N(C(=O)N1CCC(c2ccccc2)CC1)c1ccccc1,inactive: > 100 µM
17,Cc1ccc([N+](=O)[O-])cc1S(=O)(=O)Nc1ccc(C(=O)/C=C/c2cccs2)cc1,inactive: 22.5 µM
18,Cc1cc(C)c(O)c(CN2CCN(C(C)C)CCN(C(C)C)CC2)c1,inactive: 41.8 µM
19,CC(C)(C)OC(=O)NCCc1cccc2c1oc1c(CCC(=O)O)cccc12,inactive: > 100 µM
20,CC1C=C(CCCCCCCCCCCC[C@@H](O)[C@@H]2CC[C@@H]([C@@H]3CC[C@@H](C(O)CCCCCCCCCCCCC4=C[C@H](C)OC4=O)O3)O2)C(=O)O1 (stereo partly specified),inactive: > 75.9 µM
21,COC1C2C=CC(C2)[C@H]1[N+](=O)[O-] (stereo partly specified),inactive: > 100 µM
22,O=C(O)CN(c1ccccc1)S(=O)(=O)c1ccc([N+](=O)[O-])cc1,inactive: > 100 µM
